{"source": "paper PMC11089506", "about": "(Journal of Medicinal Chemistry, 2024)", "tested_on": "Na+ Channel (Site 2)", "assay_type": "binding, rat", "note": "Structures can show the parent of a compound that is named as a salt."}
{"molecule": "COc1cc(C(F)(F)F)c(OC)cc1[C@@H]1CCCNC1", "note": "[(S)-11, 3-(2,5-Dimethoxy-4-(trifluoromethyl)phenyl)piperidine Hydrochloride]", "values": [{"measurement": "% inhibition of the specific radioligand binding", "setting": "(S)-11 10 μM, n=1", "value": 86, "unit": "%"}, {"measurement": "IC50", "setting": "estimated from the % inhibition data", "value": "1 to 10", "unit": "µM"}]}
